Experimental data published in PubChem BioAssay AID1645887 (National Center for Advancing Translational Sciences (NCATS), 2021).
Among all 16,000 compounds or so, about 40 (0.2%) were called active. Inconclusive results (about 1%) are left out. Calls come from the whole dose curve; as a rule, active = well fitted activation curve with a large enough effect; inconclusive = small, poorly fitted or top-dose-only effect, or another doubt; inactive = no such curve, though single readings can be large or run the other way. This is one part of the list.

These compounds were tested against Rap guanine nucleotide exchange factor 4 (Homo sapiens) (UniProt Q8WZA2) (assay: Validation qHTS for agonist of cAMP-regulated guanine nucleotide exchange factor 4 (EPAC2)). Details: EPAC2 Rap1B BODIPY-GDP exchange, fluorescence; activation: active compounds read high.
Sequence of UniProt Q8WZA2 (Q8WZA2 whole entry, looked up): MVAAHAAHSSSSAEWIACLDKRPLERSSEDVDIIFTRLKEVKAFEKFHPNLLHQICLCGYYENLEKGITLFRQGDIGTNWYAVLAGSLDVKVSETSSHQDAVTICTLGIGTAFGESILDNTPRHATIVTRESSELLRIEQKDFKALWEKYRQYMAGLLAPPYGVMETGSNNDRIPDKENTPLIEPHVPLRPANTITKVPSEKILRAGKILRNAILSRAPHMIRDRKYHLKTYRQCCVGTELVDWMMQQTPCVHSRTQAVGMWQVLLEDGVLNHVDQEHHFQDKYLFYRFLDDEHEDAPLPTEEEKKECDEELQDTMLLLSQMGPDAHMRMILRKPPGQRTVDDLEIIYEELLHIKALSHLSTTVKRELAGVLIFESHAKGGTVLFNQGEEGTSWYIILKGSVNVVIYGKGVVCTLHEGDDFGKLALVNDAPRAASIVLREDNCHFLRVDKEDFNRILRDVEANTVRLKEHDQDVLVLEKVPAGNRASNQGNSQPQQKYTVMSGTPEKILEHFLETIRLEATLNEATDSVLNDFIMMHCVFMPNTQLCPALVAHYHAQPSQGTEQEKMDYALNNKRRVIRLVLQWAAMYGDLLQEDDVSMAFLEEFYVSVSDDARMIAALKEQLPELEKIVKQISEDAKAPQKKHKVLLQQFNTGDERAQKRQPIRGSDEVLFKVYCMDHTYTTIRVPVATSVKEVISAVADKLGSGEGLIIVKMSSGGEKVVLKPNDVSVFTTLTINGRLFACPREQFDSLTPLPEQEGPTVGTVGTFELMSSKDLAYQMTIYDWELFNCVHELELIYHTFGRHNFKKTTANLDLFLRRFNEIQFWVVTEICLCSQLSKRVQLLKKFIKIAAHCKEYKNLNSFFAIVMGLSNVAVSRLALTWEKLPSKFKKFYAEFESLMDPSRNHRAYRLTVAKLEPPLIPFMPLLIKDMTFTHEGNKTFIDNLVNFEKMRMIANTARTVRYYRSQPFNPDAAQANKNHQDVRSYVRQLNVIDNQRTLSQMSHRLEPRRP
Summary of the method: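 Signal normalized against 6.5 mM cAMP as agonist control. Mix of EPAC2 (100 nM), RAP1B-BODIPY-GDP (250 nM) and GDP (50 uM) was read kinetically at 480/540 nm, every 5 min over 30 min, after 5 min room-temperature incubation with compound.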
% is set by controls: 0 for no effect and ±100 for the full control effect.
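Note: exchange makes BODIPY-GDP fluorescence drop when released from Rap1B; series mostly up to about 150 µM.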

activation, inactive:
C[C@@H]1C[C@H]2[C@@H]3C[C@H](F)C4=CC(=O)C=C[C@]4(C)[C@@]3(F)[C@@H](O)C[C@]2(C)[C@@]1(O)C(=O)CO 1.73%
CC(=O)N1CCC2(CC1)CCN(C(=O)Nc1cccc(F)c1)CC2 -7.32%
CS(=O)(=O)N1CCC2(CCN(C(=O)Nc3cccc(C#N)c3)CC2)CC1 -0.804%
COc1ccc(NC(=O)N2CCCC3(CCN(C(C)=O)CC3)C2)cc1 -9.58%
O=c1c(-c2cccs2)nc2cnc(N3CCOCC3)nc2n1Cc1ccc(F)cc1 -5.83%
Cc1cccc2nc(CNC(=O)CN3Cc4cc(Cl)ccc4OC(C)C3)cn12 (stereo not drawn) -9.24%
C[C@@H](NCc1cc(Br)cc2[nH]c(=O)c(=O)[nH]c12)P(=O)(O)O -16.2%
CNC(=O)[C@@H]1C[C@@H](NCc2cccc(Oc3ccccc3)c2)CN1C(C)C -11.3%
O=Cc1ccccc1-c1cn(CCCOCc2ccccc2)nn1 -9.9%
O=C(O)c1cn(-c2ccc(F)cc2)c2cc(N3CCNCC3)c(F)cc2c1=O -25.1%
CCCCCCCCCCCCCCC[C@@H](O)[C@H](CO)NC(C)=O -5.46%
C#C[C@]1(O)CCC2C3CCC4=Cc5oncc5C[C@@]4(C)C3CC[C@@]21C (stereo partly drawn) 19%
COc1ccc(C(=O)NCCN2Cc3ccccc3OC(c3ccsc3)C2)c(OC)n1 (stereo not drawn) 9.15%
Cc1cnc(C)c(-c2cc(F)cc3c2OC(CNC(=O)CN2CCCC2)C3)n1 (stereo not drawn) -8.84%
CN(C)C(=O)c1ccc(-c2ccc3ncnc(N4CCNCC4)c3c2)cc1 -0.601%
Cc1nc2ccc(C(=O)N3CCc4c(cnc(C)c4CNC(=O)/C=C/c4cccs4)C3)cc2nc1C 3.96%
Nc1nc2c([nH]c(=S)n2C2OC(CO)C(O)C2O)c(=O)[nH]1 (stereo not drawn) -15.7%
CN(C)c1ncc2nc(-c3ccccc3)c(=O)n(Cc3ccc(F)cc3)c2n1 2.95%
c1cn(-c2ccnc(-c3ccc4c(c3)OCO4)n2)cn1 -2.96%
O=C1NC(=O)[C@H]2[C@@H]1[C@@H]1C=C[C@H]2C1 1.71%
Cc1cnc(CNc2ccnc(-c3ccccc3Cl)n2)cn1 -4.08%
Cc1cc(-c2ccnc(-n3ncc(C(=O)NCCc4ccncc4)c3C)n2)c(C)s1 -8.22%
CS(=O)(=O)c1ccc(-c2ccc3c(c2)CC(CNC(=O)C2(N4CCOCC4)CCCCC2)O3)cc1 (stereo not drawn) -6.38%
